The campaign covered roughly 52,000 compounds. About 1,700 (3.3%) were called active. Cut-off read from the data, not from the text of the source: active = survival mostly below about 52% (no sharp cut-off); inactive = mostly above about 56%. Some of the results follow.
system: Wild type; test: S. aureus survival, RN4220 and DeltatarO strains – OD600, teichoic acid synthesis inhibitors, primary screen (AID 463173); settings: S. aureus RN4220 wild type/DeltatarO growth, OD600, 18 h, stronger effect = lower value, screened at 18.75 µg/mL (by protocol)

| Compound | survival |
| --- | --- |
| O=S(=O)(Nc1ccc(Cl)cc1)c1ccc(NS(=O)(=O)c2ccc3c(c2)OCCO3)cc1 | inactive: 28% |
| CCOC(=O)c1cccc(NC(=O)C(CC(C)C)N2Cc3ccccc3C2=O)c1 (stereo unspecified) | inactive: 121% |
| CS(=O)(=O)N(CC(=O)N1CCCCC1)Cc1ccccc1 | inactive: 106% |
| CCC(=O)N1CCc2cc(Br)cc(S(=O)(=O)N3CCCC(C(=O)Nc4ccc(OC)c(Cl)c4)C3)c21 (stereo unspecified) | inactive: 106% |
| COc1ccc(OC)c(CNC(=O)CCCn2ccc3cc(S(=O)(=O)N4CCCC4)ccc32)c1 | inactive: 85% |
| CCNc1nc(NCC)nc(N(C)N)n1 | inactive: 98% |
| COc1cc(-c2noc(-c3ccc(NCc4cccnc4)c([N+](=O)[O-])c3)n2)cc(OC)c1OC | inactive: 122% |
| CCn1c2ccccc2c2nnc(SCCN3CCCCC3)nc21 | inactive: 62% |
| N#C/C(=C/c1cn(Cc2ccc(F)cc2)c2ccccc12)C(=O)Nc1cccc(Cl)c1 | inactive: 85% |
| COC(=O)CC1c2cc(OC)c(OC)cc2CCN1C(=O)Nc1ccc(C)cc1Cl (stereo unspecified) | inactive: 105% |
| COc1ccccc1Nc1nn2c(=O)c3ccc(C(=O)NCCCOC(C)C)cc3nc2s1 | inactive: 83% |
| C=CCNC(=O)Cn1nc(-c2ccccc2F)ccc1=O | inactive: 101% |
| CCOc1ccc(CNC(=O)CCC(=O)N2CC(C)Sc3ccccc32)cc1 (stereo unspecified) | inactive: 80% |
| CCCc1cc(=O)[nH]c(Nc2ccc(C(=O)O)cc2)n1 | inactive: 85% |
| CCOc1ccc(CCNC(=O)CCCn2nc(C)c3sc4ccccc4c3c2=O)cc1OCC | inactive: 108% |
| O=C(CSc1nccn1-c1ccccc1)Nc1nc2ccccc2s1 | inactive: 95% |
| CCC1CN(C(=O)N2CCC(C(=O)NCCN(C)C)CC2)c2ccccc2O1 (stereo unspecified) | inactive: 85% |
| Cn1ccc2cc(S(=O)(=O)N3CCCN(C(=O)Nc4ccccc4Br)CC3)ccc21 | inactive: 93% |
| CCOc1ccc(OCC)c(NC(=O)Cn2ncc3c4ccccc4n(Cc4ccccc4)c3c2=O)c1 | inactive: 89% |
| CCc1ccc(CNC(=O)c2cccc(-n3cnc4cccnc43)c2C)cc1 | inactive: 69% |
| Cc1ccc(NC(=O)c2cnc(SCC(=O)N3CCOCC3)n(C)c2=O)cc1 | inactive: 60% |
| CCOc1ccccc1NC(=O)CC1SC(=N)N(c2ccccc2)C1=O (stereo unspecified) | inactive: 111% |
| COc1ccc(C)cc1N(C)C(=O)c1c(C)oc2ncnc(N3CCOCC3)c12 | inactive: 72% |

| Compound | survival |
| --- | --- |
| COc1cccc(NC(=O)CN(C)S(=O)(=O)c2ccc3nc(C)sc3c2)c1 | inactive: 66% |
| COc1ccc(NC(=O)/C(C#N)=C/C=C/c2ccco2)cc1 | inactive: 111% |
| CC1CC2(NC(=O)NC2=O)C(C)CN1C (stereo unspecified) | inactive: 107% |
| CN(c1ccc(Cl)cc1)S(=O)(=O)c1nnc(NC(=O)C2CCCCC2)s1 | inactive: 109% |
| COc1cc(C(=O)Oc2c(Sc3ccc(C)cc3)c(C)nn2-c2ccccc2)cc(OC)c1OC | inactive: 111% |
| COC(=O)c1c(C)sc(-c2c(-c3ccc4c(c3)OCCO4)[nH]c3c2c(=O)n(C)c(=O)n3C)c1O | inactive: 81% |
| O=C1c2ccccc2C(=O)N1CC(O)COC1CCCCC1 (stereo unspecified) | inactive: 114% |
| CCNC(=O)c1cnc2sc(N3CCCCCC3)nn2c1=O | inactive: 68% |
| Nc1ccc(C(=O)N2CCCC2)cc1 | inactive: 104% |
| CCOc1ccccc1NC(=O)c1c(NC(=O)c2ccccc2C)sc2c1CCC(C)C2 (stereo unspecified) | inactive: 75% |
| Nc1nnc(SCC(=O)Nc2ccccc2C(F)(F)F)s1 | inactive: 140% |
| Cc1cccc(Nc2cc(=O)[nH]c(=O)[nH]2)c1 | inactive: 122% |
| COC(=O)c1n[nH]n(-c2ccccc2)c1=O | inactive: 79% |
| CCC(C)NC(=O)c1cnn(-c2ccc(Cl)cc2)c1C1CCN(C(=O)OC(C)(C)C)CC1 (stereo unspecified) | inactive: 77% |
| O=C(NCCc1ccc(Cl)cc1)c1ccc(CS(=O)Cc2cccc(Cl)c2)o1 (stereo unspecified) | inactive: 30% |
| CN(C1CCCCC1)S(=O)(=O)c1ccc2c(c1)c(=O)c(C(=O)NCCc1ccccc1)cn2C | inactive: 84% |
| Cc1ccn2c(Nc3ccc4c(c3)OCCO4)c(-c3ccc(Cl)s3)nc2c1 | inactive: 75% |
| Cc1cccc(NC(=O)C2CCCN(S(=O)(=O)c3cnc[nH]3)C2)c1C (stereo unspecified) | inactive: 86% |
| Cc1ccc2c(c1)cc(C(=O)Nc1ccc(F)cc1F)n2C | inactive: 121% |
| O=C1Cc2ccccc2CC(=O)N1 | inactive: 108% |
| CC(=O)NC(NC(C)=O)C(=O)c1ccccc1 | inactive: 105% |
| O=C(Cn1cc(/C=C2\SC(=S)NC2=O)c2ccccc21)NCc1ccco1 | inactive: 107% |
| Cc1oc(-c2ccc(C(=O)Nc3cc(F)ccc3F)cc2)nc1COc1ccccc1 | inactive: 89% |

| Compound | survival |
| --- | --- |
| CCOC(=O)c1cc(NC(=O)c2ccc(F)cc2)c(=O)n2c1oc1ccccc12 | inactive: 86% |
| Cc1ccc(C(=O)N(Cc2ccc(N(C)C)cc2)Cc2ccco2)cc1 | inactive: 83% |
| Cn1c(=O)c2cc(C(=O)N3CCN(c4ccc(Cl)cc4)CC3)sc2c2ccccc21 | inactive: 68% |
| CCN(CC)c1nn2c(=O)c(C(=O)NCc3ccc(F)cc3)cnc2s1 | inactive: 73% |
| CCCn1c2ccccc2c2cnn(CC(=O)NCCc3ccc(OC)cc3OC)c(=O)c21 | inactive: 72% |
| CCNC(=O)Cc1ccc(NC(=O)N2CCCCc3ccccc32)cc1 | inactive: 81% |
| Cc1nc(-c2ccccc2)sc1CCNS(=O)(=O)c1ccc(Br)cc1 | inactive: 123% |
| COc1ccc(CNC(=O)C(c2cccs2)N(Cc2cccs2)C(=O)Cc2cccs2)cc1 (stereo unspecified) | inactive: 116% |
| CCn1nc(C)c(CCN(C)C(=O)Nc2cc(Cl)ccc2C)c1C | inactive: 87% |
| Cc1ccc(CNC(=O)CCS(=O)(=O)c2cc(Br)cc3c2N(C(=O)C2CC2)CC3)cc1 | inactive: 136% |
| O=C(Nc1ccc(Cl)cc1)N1CCN(c2ccc3nnc(-c4ccc(F)cc4)n3n2)CC1 | inactive: 93% |
| Cc1ccc(-n2nc(CO)c(C(=O)NCc3cccs3)n2)cc1 | inactive: 91% |
| O=C(O)CSc1ccc(Oc2ccc(SCC(=O)O)cc2)cc1 | inactive: 105% |
| Cc1cc(C)c(S(=O)(=O)NCC(c2cccs2)S(=O)(=O)c2ccccc2)c(C)c1 (stereo unspecified) | inactive: 148% |
| COc1ccccc1CCNC(=O)C(=O)NCC(c1ccco1)S(=O)(=O)c1ccc(C)cc1 (stereo unspecified) | inactive: 134% |
| CCC(=O)N1CCc2cc(S(=O)(=O)CCC(=O)NCc3ccccc3OC)ccc21 | inactive: 86% |
| CCCCn1c(CNC(=O)c2ccc(OC)cc2)nnc1SCC(=O)Nc1ccc(OC)cc1 | inactive: 81% |
| Cc1cc(NC(=O)Nc2nc3c(s2)CCCCCC3)ccc1Br | inactive: 80% |
| Cc1ccc(NCc2nc3ccccc3n2CCOc2ccccc2)cc1 | active: -20% |
| COc1ccccc1Nc1cc(C(=O)NCc2cccs2)c2ccccc2n1 | inactive: 91% |
| COc1ccccc1-c1nnc(C2CCN(C(=O)c3ccc(C)cc3)CC2)o1 | inactive: 91% |
| COc1ccc(-c2noc(-c3nnn(-c4cc(C)ccc4C)c3N)n2)cc1 | inactive: 98% |
| NC(=O)CSc1ncc2c(n1)-c1ccccc1N(Cc1cccc(F)c1)S2(=O)=O | inactive: 73% |

| Compound | survival |
| --- | --- |
| COc1ccc2nc3oc(C(=O)NCc4ccccc4OC)cc3cc2c1 | inactive: 88% |
| Cc1ccc(-c2nc(CS(=O)CC(=O)N3CCN(c4ccc(Cl)cc4)CC3)c(C)o2)cc1 (stereo unspecified) | inactive: 73% |
| CN(C)S(=O)(=O)c1ccc2c(c1)N(CC(=O)N1CCN(c3ccc(F)cc3)CC1)CCS2 | inactive: 87% |
| CC1(C)CC(=O)c2c(oc3c(Cl)cc(NS(=O)(=O)c4ccc(Cl)cc4)cc23)C1 | inactive: 90% |
| CCN(CC)CCNC(=O)c1ccc(Cn2c(=O)c3cccn3c3cccnc32)cc1 | inactive: 96% |
| CC1CCN(c2ccc(-c3nc(C(C)C)no3)cc2[N+](=O)[O-])CC1 | inactive: 81% |
| N#Cc1ccccc1CSc1nc(N)cc(N)n1 | inactive: 92% |
| Cc1cc(NC(=O)CSc2ncc(C(=O)Nc3ccc(F)cc3)c(=O)n2C)no1 | inactive: 77% |
| Cc1nc2ccccc2c(=O)n1-c1ccc(NC(=O)C(F)(F)F)cc1 | inactive: 88% |
| Cc1ccc(-n2ncc(C(=O)NCCc3ccsc3)c2C2CCN(C(=O)OC(C)(C)C)CC2)cc1C | inactive: 73% |
| O=c1oc2ccc(Br)cc2cc1-c1csc(-c2ccc(Cl)cc2)n1 | inactive: 74% |
| O=C(CC(NCc1cccnc1)C(=O)O)Nc1ccc(F)cc1 (stereo unspecified) | inactive: 71% |
| CCCNC(=O)c1ccc(-n2c(-c3ccccc3)cc3c2CCC(C)C3)cc1 (stereo unspecified) | inactive: 121% |
| CCOc1ccccc1NC(=O)c1c(NCc2sccc2C)sc2c1CCCCC2 | inactive: 74% |
| C=Cc1ccc(Cn2c(C(=O)O)c(CNCc3cc(Br)ccc3OC)c3ccc(C)cc32)cc1 | inactive: 99% |
| N#C/C(=C\c1cn(Cc2ccc(C#N)cc2)c2ccccc12)C(=O)NCc1ccco1 | inactive: 104% |
| Cc1cccc(N2CCN(C(=O)CS(=O)(=O)c3cccc4nsnc34)CC2C)c1 (stereo unspecified) | inactive: 74% |
| CCCN1C(=O)C2(c3ccccc31)c1c(oc3ccccc3c1=O)C(=O)N2CCO (stereo unspecified) | inactive: 101% |
| COc1ccccc1OCc1nc(C#N)c(NCc2ccc(C)cc2)o1 | inactive: 89% |
| COc1ccc(NCc2cc3cc4c(cc3n(CC(=O)Nc3ccc(C)c(C)c3)c2=O)OCO4)cc1 | inactive: 75% |
| CC(C)(C)OC(=O)N1CCC(c2c(C(=O)N3CCCCC3)cnn2-c2ccccc2Cl)CC1 | inactive: 71% |
| Cn1c(=O)oc2cc(S(=O)(=O)CCC(=O)NCCc3ccc(Cl)cc3)ccc21 | inactive: 80% |
